Measurements from the supplement of paper PMC8183993.
Where a name gives a salt, the structure may show the parent alone. ± gives the standard deviation of the averaged measurements. In all, about 3,200 compounds were measured (“nuclei count (viability) relative to DMSO”: median about 99, lowest 2% from about 16 on). The list shows a part of the results.

System: U2OS
Test: nuclei count (viability) relative to DMSO (% of DMSO); higher = more viable cells
Settings: 10 µM; 24 h
Protocol: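 Primary image-based screen in U2OS cells: compounds at 10 uM for 24 h, then a 1 h o-propargyl-puromycin (OPP) pulse, click labelling, and high-throughput microscopy. Mean cytoplasmic OPP intensity and nuclei count were normalised to DMSO wells within each plate (DMSO = 100) and averaged over triplicate plates.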

Point of comparison: `NC(=O)Cc1cccc(C(=O)c2ccccc2)c1N` [Nepafenac], nuclei count 106. Against it:
- Cc1cccc(C)c1NC(=O)C1CCCCN1C (stereo unspecified) [Mepivacaine hydrochloride] — lower, 102
- CCc1nc(-c2cccc(C)c2)c(-c2ccnc(NC(=O)c3ccccc3)c2)s1 — lower, 91.8 ± 6.9
- CNC(=O)[C@H]1O[C@@H](n2cnc3c(NCc4cccc(I)c4)ncnc32)[C@H](O)[C@@H]1O — lower, 105
- C=C[C@H]1CN2CC[C@H]1C[C@@H]2[C@@H](O)c1ccnc2ccc(OC)cc12 [Quinidine hydrochloride monohydrate] — lower, 96.1
- C[C@]12CC[C@H]3C(=CCc4cc(O)ccc43)[C@@H]1CCC2=O [Equilin] — lower, 93.1
- CCN(C(=O)CO)[C@H]1CN(/C(=N\C#N)Nc2cccc(OC(F)F)c2)N=C1c1ccc(Cl)c(Cl)c1 — higher, 111
- CN(C)CCC=C1c2ccccc2CCc2ccccc21 [Amitryptiline hydrochloride] — lower, 92.5
- Cc1ccnc2c1NC(=O)c1cccnc1N2C1CC1 [Nevirapine (Viramune)] — higher, 111
- Cc1[nH]c(=O)c(C#N)cc1-c1ccncc1 [Milrinone] — lower, 104
- CC(C)[C@H](CO)Nc1nc(Nc2cccc(Cl)c2)c2ncn(C(C)C)c2n1 [Purvalanol A] — lower, 48.7
- CS(=O)(=O)c1ccc(C2=C(c3ccccc3)C(=O)OC2)cc1 [Rofecoxib] — higher, 108
- Cn1c(=O)c2[nH]cnc2n(C)c1=O [Aminophylline] — higher, 108
- O=C(CCCCCCC(=O)NO)NO [Suberoyl bis-hydroxamic acid] — lower, 98.2
- COc1ccc([C@H]2CNC(=O)C2)cc1OC1CCCC1 [(S)-(+)-Rolipram] — lower, 101
- COc1ccc([C@H]2CNC(=O)C2)cc1OC1CCCC1 [S- (+)-Rolipram] — lower, 101
- CCN(CC)CCOC(=O)C(c1ccccc1)C1CCCCC1 (stereo unspecified) [Drofenine hydrochloride] — higher, 108
- COc1cc2c(cc1OC)CN(CCc1ccc(NC(=O)c3cc(OC)c(OC)cc3NC(=O)c3cnc4ccccc4c3)cc1)CC2 [Tariquidar] — lower, 96.8
- FC(F)(F)c1cc(COC2CCCNC2c2ccccc2)cc(C(F)(F)F)c1 [L-733,060 hydrochloride] — lower, 97.6
- CN(C(=O)c1ccc(F)cc1C(F)(F)F)C1CCN(c2nnc(-c3ccnn3C)c3ccccc23)CC1 — lower, 101
- COc1cc(Cc2cnc(N)nc2N)cc(OC)c1OC [Trimethoprim] — higher, 109
- CN1CCC(c2c(O)cc(O)c3c(=O)cc(-c4ccccc4Cl)oc23)C(O)C1 (stereo unspecified) [Flavopiridol (Alvocidib) HCl] — lower, 36.8
- CO[C@@]1(NC(=O)Cc2cccs2)C(=O)N2C(C(=O)O)=C(COC(N)=O)CS[C@@H]21 [Cefoxitin sodium salt] — lower, 93.2
- CC(=O)c1ccc2c(c1)N(CCCN1CCC(CCO)CC1)c1ccccc1S2 [Piperacetazine] — lower, 88.2
- COc1ccccc1-c1cc(Nc2cccc(CS(N)(=O)=O)c2)ncn1 — lower, 58.5
- CC1(COc2ccc3c(c2)ncn3-c2ccc3cccc(N4CCC(N)CC4)c3n2)COC1 — lower, 36.9
- CNCC[C@H](Oc1cccc2ccccc12)c1cccs1 [Duloxetine HCl (Cymbalta)] — lower, 95.7
- C[C@@H](Oc1cc(-n2cnc3ccc(CN4CCN(C)CC4)cc32)sc1C(N)=O)c1ccccc1C(F)(F)F — lower, 32.2
- O=C(CCCN1CCC(O)(c2ccc(Br)cc2)CC1)c1ccc(F)cc1 [Bromperidol] — lower, 95
- COc1cc2c(cc1OC)C(=O)C(CC1CCN(Cc3ccccc3)CC1)C2 (stereo unspecified) [Donepezil HCl (Aricept)] — higher, 113
- CCCCC(CC)CN1CN(CC(CC)CCCC)CC(C)(N)C1 (stereo unspecified) [Hexetidine] — the same, 106
- C=CC(=O)c1ccc2ccccc2c1 — lower, 105
- NS(=O)(=O)c1cccc2c1c([N+](=O)[O-])cc1nc(O)c(O)nc12 — lower, 98.7
- NS(=O)(=O)c1cccc2c1c([N+](=O)[O-])cc1nc(O)c(O)nc12 [NBQX disodium salt] — higher, 109
- N#CC(=C(/N)Sc1ccccc1N)/C(C#N)=C(/N)Sc1ccccc1N — lower, 102
- CC(C)(C)C(=O)OCOC(=O)[C@@H]1N2C(=O)[C@@H](NC(=O)[C@H](N)c3ccccc3)[C@H]2SC1(C)C [Pivampicillin] — lower, 91.2
- CC1(C)Oc2ccc(C#N)cc2[C@H](N2CCCC2=O)[C@H]1O [Cromakalim] — lower, 89.8
- CCCCOc1c(C(=O)c2c(F)cc(C)cc2F)c[nH]c2nncc1-2 — lower, 83.2 ± 20
- CCC(=O)N1CCOc2c(cc(-c3ccc(OC)c(OC)c3)cc2OC[C@H]2CCCN(C)C2)C1 — lower, 96.7
- O=C1NCN(c2ccccc2)C12CCN(CCCC(c1ccc(F)cc1)c1ccc(F)cc1)CC2 [Fluspirilene] — lower, 91.5 ± 13
- O=C1NCN(c2ccccc2)C12CCN(CCCC(c1ccc(F)cc1)c1ccc(F)cc1)CC2 [Fluspirilen] — lower, 89.1
- Nc1ccccc1NC(=O)c1ccc(CNC(=O)OCc2cccnc2)cc1 [Entinostat (MS-275, SNDX-275)] — lower, 59.6
- COc1cccc(OC)c1OCCNCC1COc2ccccc2O1 (stereo unspecified) [WB 4101 hydrochloride] — lower, 104
- N=C(N)NC(=O)c1nc(Cl)c(N)nc1N [Amiloride hydrochloride dihydrate] — lower, 105
- N=C(N)NC(=O)c1nc(Cl)c(N)nc1N [Amiloride hydrochloride] — lower, 89.8
- O=[N+]([O-])c1cccc2c(Br)[nH]nc12 [3-Bromo-7-nitroindazole] — lower, 102
- CN(C)C(=O)COC(=O)Cc1ccc(OC(=O)c2ccc(NC(=N)N)cc2)cc1 [Camostat Mesilate (FOY-305)] — lower, 98.4
- CC(Cc1ccccc1)(NC(=O)CN)c1ccccc1 (stereo unspecified) [Remacemide hydrochloride] — lower, 94.6
- CCCCOC(=O)c1ccc(N)cc1 [Butamben] — the same, 106
- CN(C)CC[C@H](CSc1ccccc1)Nc1ccc(S(=O)(=O)NC(=O)c2ccc(N3CCN(Cc4ccccc4-c4ccc(Cl)cc4)CC3)cc2)cc1[N+](=O)[O-] — lower, 73.8
- C[C@H]1COC2=C1C(=O)C(=O)c1c2ccc2c1CCCC2(C)C [Cryptotanshinone] — lower, 99.4
